{"source": "paper PMC4336329", "about": "(PLoS ONE, 2015)", "note": "About 14,000 (4.5%) of roughly 310,000 compounds showed an effect of 50% or more. Effects have a minus sign here. Some of the results follow.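 Note: peak tail current of the secondary pulse compared with the same well before compound.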", "data": [{"target": "human ether-à-go-go-related gene (hERG) potassium channel (human, UniProt Q12809)", "sequence (Q12809 whole entry, looked up)": "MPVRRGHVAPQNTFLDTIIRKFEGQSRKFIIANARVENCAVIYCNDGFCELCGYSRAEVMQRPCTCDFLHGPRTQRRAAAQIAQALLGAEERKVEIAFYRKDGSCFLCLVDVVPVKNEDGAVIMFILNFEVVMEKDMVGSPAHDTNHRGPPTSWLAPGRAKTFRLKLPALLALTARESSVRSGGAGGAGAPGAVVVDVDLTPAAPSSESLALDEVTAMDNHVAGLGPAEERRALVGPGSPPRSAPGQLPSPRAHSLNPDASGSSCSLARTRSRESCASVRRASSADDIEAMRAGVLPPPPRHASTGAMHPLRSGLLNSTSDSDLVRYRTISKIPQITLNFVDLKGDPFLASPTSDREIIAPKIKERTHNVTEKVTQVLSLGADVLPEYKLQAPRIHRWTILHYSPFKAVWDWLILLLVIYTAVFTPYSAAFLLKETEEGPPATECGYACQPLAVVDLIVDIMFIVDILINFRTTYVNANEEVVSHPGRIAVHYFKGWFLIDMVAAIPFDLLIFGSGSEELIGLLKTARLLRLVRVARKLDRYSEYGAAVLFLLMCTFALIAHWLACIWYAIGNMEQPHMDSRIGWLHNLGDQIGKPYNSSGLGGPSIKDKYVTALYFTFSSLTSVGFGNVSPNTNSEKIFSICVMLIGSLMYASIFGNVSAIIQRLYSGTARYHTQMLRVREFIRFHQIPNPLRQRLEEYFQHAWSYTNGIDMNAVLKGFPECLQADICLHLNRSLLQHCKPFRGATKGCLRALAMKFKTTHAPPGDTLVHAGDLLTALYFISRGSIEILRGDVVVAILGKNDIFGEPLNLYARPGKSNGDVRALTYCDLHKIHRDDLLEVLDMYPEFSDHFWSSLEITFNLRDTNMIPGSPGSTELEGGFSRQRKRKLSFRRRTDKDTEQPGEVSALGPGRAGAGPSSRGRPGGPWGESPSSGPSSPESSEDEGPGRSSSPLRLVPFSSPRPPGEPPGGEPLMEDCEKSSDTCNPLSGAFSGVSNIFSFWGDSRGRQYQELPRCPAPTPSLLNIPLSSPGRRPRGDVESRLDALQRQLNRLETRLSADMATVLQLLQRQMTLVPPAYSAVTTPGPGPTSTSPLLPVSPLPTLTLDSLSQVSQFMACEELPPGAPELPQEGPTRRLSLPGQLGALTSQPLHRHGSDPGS", "experiment": "primary screen, population patch clamp on CHO cells stably expressing hERG", "units": {"hERG current change (%, negative = inhibition) at 10uM": "%"}, "values": [{"compound": "O=C(Oc1ccccc1C(=O)N1CCOCC1)c1ccc(Br)cc1", "hERG current change (%, negative = inhibition) at 10uM": -8.59}, {"compound": "O=C(Cc1ccccc1)Nc1ccc(SC(F)F)cc1", "hERG current change (%, negative = inhibition) at 10uM": -29.7}, {"compound": "S=c1[nH]ncn2c1cc1oc3ccccc3c12", "hERG current change (%, negative = inhibition) at 10uM": 15.9}, {"compound": "Cc1cccc(-n2ccnc2CN2CCN(C(C)C)C(CCO)C2)c1", "note": "(stereo not drawn)", "hERG current change (%, negative = inhibition) at 10uM": -12.3}, {"compound": "COc1cnc(-c2ccccc2)nc1Oc1ccc(C(C)(C)C)cc1", "hERG current change (%, negative = inhibition) at 10uM": -10.2}, {"compound": "O=C(CS(=O)CC(=O)N(CC(=O)NC1CCCC1)C1CCCC1)Nc1ccc(F)cc1", "note": "(stereo not drawn)", "hERG current change (%, negative = inhibition) at 10uM": 9.61}, {"compound": "Cc1cc(=O)n(CCO)c(O)c1C#N", "hERG current change (%, negative = inhibition) at 10uM": 3.44}, {"compound": "CCOc1cc(/C=N/NC(=O)C2CC2)ccc1OC(C)C", "hERG current change (%, negative = inhibition) at 10uM": 15.9}, {"compound": "O=C(CCS(=O)(=O)Cc1ccccc1F)NCCCN1CCCCC1", "hERG current change (%, negative = inhibition) at 10uM": 8.31}, {"compound": "Fc1ccc(-c2ccc(NCCN3CCOCC3)nn2)cc1", "hERG current change (%, negative = inhibition) at 10uM": -21.2}, {"compound": "CCOC(=O)c1csc(NC(=O)c2ccc(OCC)cc2)n1", "hERG current change (%, negative = inhibition) at 10uM": -14.9}, {"compound": "CCOCC(O)CS(=O)(=O)c1ccccn1", "note": "(stereo not drawn)", "hERG current change (%, negative = inhibition) at 10uM": 11.9}, {"compound": "COc1ccc2c(c1)SCC/C2=C\\CN1C(=O)CCC1=O", "hERG current change (%, negative = inhibition) at 10uM": 1.89}, {"compound": "CC(C)(C)NC(=O)CSc1nc(N)cc(=O)[nH]1", "hERG current change (%, negative = inhibition) at 10uM": 21.8}, {"compound": "Cn1cccc1C(=O)NCC(c1ccc(F)cc1)N1CCOCC1", "note": "(stereo not drawn)", "hERG current change (%, negative = inhibition) at 10uM": -5.3}, {"compound": "COC1CCN(Cc2c(C(=O)N3CCc4ccccc4C3)nc3ccc(Cl)cn23)CC1", "hERG current change (%, negative = inhibition) at 10uM": -29.4}, {"compound": "Cc1ccnc(NS(=O)(=O)c2ccc(NC(=O)c3cc(-c4ccc(Br)cc4)nc4ccccc34)cc2)n1", "hERG current change (%, negative = inhibition) at 10uM": 12.5}, {"compound": "COc1cccc(NC(=O)c2ccc(NC(=O)C3CC(=O)OC34CCCCC4)cc2)c1", "note": "(stereo not drawn)", "hERG current change (%, negative = inhibition) at 10uM": 5.57}, {"compound": "O=C1Nc2ccc(S(=O)(=O)N(CCO)CCO)c3cccc1c23", "hERG current change (%, negative = inhibition) at 10uM": 6.96}, {"compound": "COc1ccccc1C(=O)NCCC(=O)N1CCCC(C)C1", "note": "(stereo not drawn)", "hERG current change (%, negative = inhibition) at 10uM": 18}, {"compound": "CC1Cc2nc(SCC(=O)NCC3CCCO3)n(C)c(=O)c2S1", "note": "(stereo not drawn)", "hERG current change (%, negative = inhibition) at 10uM": 11.4}, {"compound": "C=CCNC(=S)NNC(=O)C(CC(C)C)CC(C)O", "note": "(stereo not drawn)", "hERG current change (%, negative = inhibition) at 10uM": 12.5}, {"compound": "COc1ccc(CNC2CC(=O)N(C)C2=O)cc1", "note": "(stereo not drawn)", "hERG current change (%, negative = inhibition) at 10uM": 13.6}, {"compound": "N#Cc1nc(-c2cccc3ccccc23)oc1N", "hERG current change (%, negative = inhibition) at 10uM": 5.28}, {"compound": "O=C(OCCN1CCCC1=O)c1cc(F)c(F)c(F)c1F", "hERG current change (%, negative = inhibition) at 10uM": 10.5}, {"compound": "C=CCn1c(SCC(=O)c2c(N)n(CCC)c(=O)n(C)c2=O)nnc1-c1ccncc1", "hERG current change (%, negative = inhibition) at 10uM": 12.6}, {"compound": "CCN(CC)S(=O)(=O)c1ccc(C(=O)OC2CCCCC2CN(C)C)cc1", "note": "(stereo not drawn)", "hERG current change (%, negative = inhibition) at 10uM": -15.8}]}]}
